Results reported in article PMC4030788 (Biochemistry, 2014).

Target: the molecule itself
Assay: AUC

Protein | Kd
SecA Δ2–8 (natural protein) not shown | 20.3 ± 1 µM
SecA Δ2–9 (natural protein) not shown | 17.1 ± 1.2 µM
SecA Δ2–10 (natural protein) not shown | 97.5 ± 18.7 µM
SecA L2A/I3A/L5A/L6A (natural protein) not shown | 62 ± 7 µM
SecA K4Q/K8Q (natural protein) not shown | 9.2 ± 0.7 µM

Target: the molecule itself
Assay: AUC
Remark: another data set of the same source

Protein | Kd
SecA E665A (natural protein) not shown | 12.6 µM and 12.8 µM

Target: the molecule itself
Assay: AUC
Remark: another data set of the same source

Protein | Kd
SecA Q662A (natural protein) not shown | 0.1 ± 0.01 µM
SecA E665A (natural protein) not shown | 12.7 ± 0.3 µM
SecA K800 single-alanine substitution mutant (natural protein) not shown | 3.2 ± 0.3 µM
SecA Q801A (natural protein) not shown | 2.6 ± 0.3 µM
SecA E802 single-alanine substitution mutant (natural protein) not shown | 3.3 ± 0.3 µM
SecA F811 single-alanine substitution mutant (natural protein) not shown | 2.3 ± 0.1 µM
SecA L815 single-alanine substitution mutant (natural protein) not shown | 2.2 ± 0.03 µM
SecA L818 single-alanine substitution mutant (natural protein) not shown | 3.4 ± 0.1 µM
SecA K8A (natural protein) not shown | 8.6 ± 0.5 µM
SecA R342 single-alanine substitution mutant (natural protein) not shown | 3.7 ± 0.2 µM
SecA D568A (natural protein) not shown | 4.8 ± 0.8 µM
SecA K625A (natural protein) not shown | 2.7 ± 2.4 µM
SecA N629A (natural protein) not shown | 2.3 ± 0.4 µM
SecA K633 single-alanine substitution mutant (natural protein) not shown | 3.6 ± 0.1 µM
SecA E635A (natural protein) not shown | 2.3 ± 0.8 µM
SecA D640 single-alanine substitution mutant (natural protein) not shown | 1.6 ± 0.01 µM

Values joined by “and” are separate entries in the source; they are usually repeats but may differ in a detail not shown here. Identical values can stand only once.
